Results: PubChem BioAssay AID504832 (National Center for Advancing Translational Sciences (NCATS), 2011)
Among all 310,000 compounds or so, about 18,000 (5.8%) were called active. This list was built around the results that the source calls inconclusive (neither active nor inactive); the mix of calls is not that of the screen. Calls come from the whole dose curve; as a rule, active = well fitted inhibition curve with a large enough effect; inconclusive = small, poorly fitted or top-dose-only effect, or another doubt; inactive = no such curve, though single readings can be large or run the other way. Potencies of inconclusive entries are left out as doubtful fits.

Assay: Primary qHTS for delayed death inhibitors of the malarial parasite plastid, 48 hour incubation
Details: P. falciparum luciferase growth in erythrocytes; series mostly up to 28.7 µM; activity change, negative = inhibition: at the top concentration
Procedure, shortened: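 Growth was read as firefly luciferase luminescence after a 48 h, 37 C, 5% CO2 exposure of compounds to reporter-bearing P. falciparum cultures (0.1% parasitemia, 2% hematocrit final) in Albumax-supplemented RPMI 1640.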
% is set by controls: 0 for no effect and ±100 for the full control effect; potency is the fitted concentration of half-maximal effect; tags give direction and shape of the fitted curve.

SMILES	Potency	activity change, negative = inhibition
COc1ccccc1NC(=O)Cn1c2ccc(F)cc2c2nc3n(c(=O)c21)CCS3	inconclusive [inhibitor, single point]	
COC(=O)c1sccc1S(=O)(=O)Nc1ccc(S(N)(=O)=O)cc1		inactive: 16.2%
COc1cc(CN2CCN(C(c3ccccc3)c3ccccc3)CC2)cc(OC)c1OC	inconclusive [inhibitor, full curve, poor fit]	
CCOc1cccc2sc(N(CCCN(C)C)C(=O)c3ccc(S(=O)(=O)N(C)Cc4ccccc4)cc3)nc12	inconclusive [inhibitor, single point]	
O=[N+]([O-])c1ccc(C[n+]2ccc(Cc3ccccc3)cc2)cc1	active: 3.7 µM	
CCn1c(SCC(=O)Nc2cccc(C)c2)nc2c(c1=O)SC(C)C2 (configuration not stated)	inconclusive [inhibitor, single point]	
CCOC(=O)c1c(C)c(C(=O)N2CCCCCC2)c(C)n1CC	inconclusive [inhibitor, single point]	
O=C(CNC(=O)c1cccc(S(=O)(=O)N2CCc3ccccc32)c1)Nc1ccc(F)c(F)c1F	inconclusive [inhibitor, single point]	
CCN(CC)S(=O)(=O)c1ccc(NC(=O)CCC2CCCCC2)cc1	inconclusive [inhibitor, single point]	
O=C(NCCN1CCOCC1)c1cnn2c(-c3ccccc3)cc(-c3ccccc3)nc12	inconclusive [inhibitor, single point]	
Cn1cccc1-c1nc2ccccc2[nH]1		inactive: 138%
O=C(O)/C=C/c1cn(-c2ccccc2)nc1-c1ccccc1		inactive: 15.6%
COc1ccc(S(=O)(=O)/N=C2\C=C(NS(=O)(=O)c3ccccc3)C(=O)c3ccccc32)cc1	inconclusive [inhibitor, partial curve, poor fit]	
Cc1cnc2ncc3sccc3c2c1	inconclusive [inhibitor, single point]	
COc1ccc(NS(=O)(=O)c2cc(NC(=O)c3cnc(C)cn3)ccc2N2CCCCC2)cc1	active: 11.7 µM	
NC(C(=O)O)C(O)c1ccc(O)c(O)c1 (configuration not stated)	inconclusive [inhibitor, single point]	
Cc1[nH]c(=O)c(C(=O)/C=C/c2ccccc2F)c2c1CCCC2	active: 3.29 µM	
O=c1ccc(-c2ccc(S(=O)(=O)NCc3cccc(Br)c3)s2)n[nH]1	inconclusive [inhibitor, single point]	
CC(C)Cn1c(SCC(=O)N2CCCc3ccccc32)nc2ccccc2c1=O	inconclusive [inhibitor, partial curve]	
CCOC(=O)C1=C(CC)Nc2ccccc2N=C1NC(=O)Nc1ccccc1OC	inconclusive [inhibitor, single point]	
CCOc1ccc(N2C(=O)NC(=O)/C(=C\c3ccc(N4CCCCC4)o3)C2=O)cc1	inconclusive [inhibitor, single point]	
CC1(C)CC(NNCCC#N)=CC(=[N+]2CCCC2)C1		inactive: 0.281%
O=C(Nc1cc(S(=O)(=O)N2CCOCC2)ccc1N1CCOCC1)c1ccc(S(=O)(=O)N2CCCCC2)cc1	active: 11.7 µM	

SMILES	Potency	activity change, negative = inhibition
O=C(CCC(=O)N(CC(=O)NC1CCCCC1)CC1CCCO1)Nc1nccs1 (configuration not stated)		inactive: -4.4%
Nc1nc(Nc2cccc(F)c2)nc2ccccc12	inconclusive [inhibitor, single point]	
CC1Cc2cc(/C(O)=C3/C(=O)C(=O)N(CCN4CCOCC4)C3c3cccc(Cl)c3)ccc2O1 (configuration not stated)	inconclusive [inhibitor, partial curve, poor fit]	
COc1cccc(NC(=S)NCCC(c2ccccc2)c2ccccc2)c1	inconclusive [inhibitor, partial curve, poor fit]	
Cc1nc(Nc2ccccc2)sc1C	inconclusive [inhibitor, partial curve, poor fit]	
COc1ccc(OC)c(-c2cc(C(=O)NCc3cccs3)no2)c1	inconclusive [inhibitor, single point]	
COc1ccc(NC(=O)C(c2cc3c(cc2[N+](=O)[O-])OCO3)N(C)Cc2ccccc2)cc1 (configuration not stated)	inconclusive [inhibitor, single point]	
COCC(C)n1c(C)cc(C(=O)CSc2nnc(N)s2)c1C (configuration not stated)	inconclusive [inhibitor, single point]	
Cc1ccc2sc(N(CCN(C)C)C(=O)/C=C/c3cccs3)nc2c1C	inconclusive [inhibitor, partial curve]	
C(=N\N(c1ccccc1)c1ccccc1)/c1ccc2c(c1)OCO2	inconclusive [inhibitor, partial curve, poor fit]	
CC(C)c1ccc(NC(=O)Cn2nnc(C(=O)NCc3ccc4c(c3)OCO4)c2N)cc1		inactive: -17%
S=c1nc2ccccc2c2nc(-c3ccccc3Br)[nH]n12	active: 2.94 µM	
O=C(CCC(=O)N(CC(=O)NC1CCCCC1)c1ccc(F)cc1)Nc1nccs1	inconclusive [inhibitor, single point]	
O=C1CN=C(c2ccc(Br)cc2)c2c(sc3c2CCCC3)N1CCN1CCCCC1	inconclusive [inhibitor, partial curve]	
CCCOc1ccc([C@@H]2C3CN(C(=O)OCC)CC=C3C(C#N)=C(N)C2(C#N)C#N)cc1OC (some centres not stated)	active: 5.86 µM	
COC(=O)c1c(C)nc2c(c(SC)nn2-c2ccccc2)c1N	inconclusive [inhibitor, single point]	
O=C(Cc1cccs1)Nc1ccc(S(=O)(=O)Nc2ncccn2)cc1		inactive: 0.163%
Cc1cc(S(=O)(=O)N2CCCOC2CNC(=O)C(=O)NCCCN2CCOCC2)ccc1F (configuration not stated)		inactive: 5.49%
CN(CC(=O)Nc1ccc(Cl)c(Cl)c1)C(=O)c1cccc2cccnc12	inconclusive [inhibitor, single point]	
COC(=O)[C@H](CC(C)C)NS(=O)(=O)N(Cc1ccccc1)[C@@H](CC(C)C)C(=O)OC	active: 8.28 µM	
CC(=O)Oc1c(S(=O)(=O)c2ccccc2)c(C)nn1C(C)(C)C		inactive: 13.8%
CN(C)c1ccc(C(=O)NCC(c2cccs2)N2CCOCC2)cc1[N+](=O)[O-] (configuration not stated)	inconclusive [inhibitor, single point]	
CCOC(=O)C1(CCOc2ccccc2)CCN(Cc2ccc3c(c2)OCCO3)CC1	inconclusive [inhibitor, partial curve, poor fit]	

SMILES	Potency	activity change, negative = inhibition
O=S(=O)(Nc1ccc2c(c1)nc1n2CCN(Cc2ccccc2)C1)c1ccccc1		inactive: 66.2%
O=C1c2cccnc2C(=O)N1Cc1ccc(Cl)cc1		inactive: 0.808%
COc1ccc([N+](=O)[O-])cc1N(CC(O)CN1CCCC1)S(=O)(=O)c1ccc(C)cc1 (configuration not stated)	inconclusive [inhibitor, single point]	
Cc1nc2c(-c3ccccc3)c(C)nn2c(SCC(N)=O)c1Cc1ccccc1	inconclusive [inhibitor, partial curve]	
O=C(CCC1CCCCC1)NCCS(=O)(=O)N1CCN(c2ccc(F)cc2)CC1	inconclusive [inhibitor, single point]	
Cc1ccc(C(C(=O)NC2CCCCC2)N(C(=O)c2csnn2)C2CCCC2)o1 (configuration not stated)	inconclusive [inhibitor, single point]	
COc1ccc(C)cc1Nc1nc(-c2ccccc2O)nc2ccccc12	inconclusive [inhibitor, single point]	
Cc1ccc(C(=O)N/C(=C\c2ccccc2)C(=O)NCc2ccncc2)cc1	inconclusive [inhibitor, partial curve, poor fit]	
CC(C(=O)O)c1ccc(N2Cc3ccccc3C2=O)cc1 (configuration not stated)	inactive	
NC(=O)c1ccc(NC(=O)CS(=O)(=O)c2cn(CC(=O)N3CCCCC3)c3ccccc23)cc1		inactive: -15.3%
O=S(=O)(c1ccc(F)cc1)N1CCCCC1c1cccnc1 (configuration not stated)	inconclusive [inhibitor, partial curve]	
CO[C@@]12[C@H](COC(N)=O)C3=C(C(=O)C(C)=C(N)C3=O)N1C[C@@H]1N[C@@H]12	active: 13.1 µM	
CCOC(=O)c1c(-c2ccc(C)cc2)csc1NC(=O)CCN1CCOCC1	inconclusive [inhibitor, partial curve, poor fit]	
CC1(C)CC(=O)C2=C(C1)N1C(=C(C#N)C2c2ccc(Cl)cc2)N=C(N)c2ccccc21 (configuration not stated)	inconclusive [inhibitor, partial curve]	
CCCCN(C)CCCNC(=O)c1cn(C)c2ccc(S(=O)(=O)N(C)C3CCCCC3)cc2c1=O	inconclusive [inhibitor, single point]	
COc1ccc(OC)c(NC(=O)NC2(C(F)(F)F)Oc3ccccc3O2)c1	inconclusive [inhibitor, single point]	
Cc1ccc(S(=O)(=O)NCCc2nc3ccccc3[nH]2)cc1		inactive: 8.9%
COc1ccc(N(C)S(=O)(=O)c2cccc(C(=O)N3CCN(S(=O)(=O)c4ccc(C)cc4)CC3)c2)cc1	active: 5.86 µM	
COc1ccccc1N(C)S(=O)(=O)c1ccc(C(=O)NC2CCCCC2)cc1	inconclusive [inhibitor, single point]	
C=CCn1c(O)c(C(C)=Nc2ccc(N(C)C)cc2)c(=O)[nH]c1=O	active: 11.7 µM	
CN(C(=O)CSc1nc(-c2ccccc2)cn1N)C(c1ccccc1)c1ccccc1	active: 11.7 µM	
